# According to PubChem BioAssay AID686970 (National Center for Advancing Translational Sciences (NCATS), 2013):
# About 6,000 (1.7%) of roughly 360,000 compounds were called active. Inconclusive results, whose numbers are uncertain, are shown with a selection of clear calls. The call rests on the fitted dose curve; in most records, active means well fitted cell-killing curve with a large enough effect; inconclusive means small, poorly fitted or top-dose-only effect, or effect the other way; inactive means flat fitted curve, though single readings scatter. Potencies of inconclusive entries are left out as doubtful fits.
# Experiment: qHTS for induction of synthetic lethality in tumor cells producing 2HG: qHTS for the HT-1080-NT fibrosarcoma cell line;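 further: NT is the 2HG producing partner of a matched IDH1 knockdown line; nearly all actives have a fitted effect of over 55% in size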;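 on activity, negative = less viability: 0% = DMSO-treated cells and -100% = media-only wells without cells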
# Details: HT-1080-NT fibrosarcoma viability, CellTiter-Glo ATP luminescence, 48 h; activity, negative = less viability: at 46.1 µM (top of the series) unless noted
# Outline: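 750 cells/well, RPMI + 5% FBS; 2 h settle, compound pin-transfer, 48 h at 37 degrees C. CellTiter-Glo 10 min RT, luminescence. Normalized to DMSO and media-only wells.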
# Potency means the concentration at half of the fitted maximal effect; tags describe the fitted curve by direction and shape.
SMILES,Potency,"activity, negative = less viability"
CCc1ccc(OC2(C)CCN(CCOc3ccc(C)cc3)C2)cc1 (configuration not stated),"inconclusive [cytotoxic, partial curve]",
CCOc1cc(/C=N/NC(=O)Cn2nc([N+](=O)[O-])cc2C)ccc1OCc1ccc(F)cc1,"inconclusive [cytotoxic, single point]",
COc1cccc(C(C(=O)NC2CCCC2)N2CCN(c3cc(C)ccc3C)CC2)c1OC (configuration not stated),"inconclusive [cytotoxic, single point]",
COc1ccccc1C(C[N+](=O)[O-])c1c[nH]c2ccccc12 (configuration not stated),active: 14.6 µM,
CC(=O)NC(c1ccccc1)c1cc(Cl)c2cccnc2c1O (configuration not stated),"inconclusive [cytotoxic, partial curve]",
COC(=O)C(Cc1ccc(O)cc1)N1Cc2ccccc2C1=O (configuration not stated),inactive,
COC(=O)c1ccc2nc(-c3ccco3)c(Cc3ccccc3)n2c1,"inconclusive [cytotoxic, single point]",
Cn1c(=N)n(CC(O)c2cccc3ccccc23)c2ccccc21 (configuration not stated),active: 23.1 µM,
COc1ccc(CNC(=O)C2CCN(S(=O)(=O)N3CCC4(CC3)OCCO4)CC2)c(OC)c1,"inconclusive [cytotoxic, partial curve, poor fit]",
COc1cc(/C=C2/SC(=O)NC2=O)ccc1OCc1ccccc1,active: 23.1 µM,
Cc1ccc(Nc2nc(N)c([N+](=O)[O-])c(NCc3ccccc3)n2)cc1,"inconclusive [cytotoxic, single point]",
Cc1ccc(N(C(=O)CNC(=O)c2ccco2)C(C(=O)NC2CCCCC2)c2cccnc2)cc1C (configuration not stated),inactive,
C/C(=N/NC(=O)CSc1nc2ccccc2s1)c1ccncc1,inactive,
CCCCC(=O)N(C)c1c(CC)nc2c(OCC3CCCCC3)cccn12,"inconclusive [cytotoxic, single point]",
COc1ccc(C(=O)Nc2ccccc2C(=O)N/N=C/c2ccncc2)cc1OC,active: 25.9 µM,
COc1cc(NS(=O)(=O)c2ccc(OC)c(C)c2C)c(OC)cc1Cl,active: 2.31 µM,
Cc1ccc(NC(=S)NC(=O)c2ccc(-c3ccc(Cl)cc3)o2)c(O)c1,"inconclusive [cytotoxic, single point]",
CCCCn1c(SCC(=O)NCc2ccco2)nc2ccccc2c1=O,inactive,
Cc1nn2c(NCCN(C)C)c3c(nc2c1-c1ccccc1)CCCC3,active: 14.6 µM,
NC(=O)c1ccc(C(F)(F)F)n(Cc2cccc(Cl)c2)c1=O,"inconclusive [cytotoxic, single point]",
CCOC(=O)Cc1csc(NC(=O)NC2(C(F)(F)F)Oc3cc(Cl)c(Cl)cc3O2)n1,"inconclusive [cytotoxic, partial curve]",
CC1C/C(=C/c2cccn2C)C(=O)/C(=C/c2cccn2C)C1 (configuration not stated),"inconclusive [cytotoxic, single point]",
O=C(NCCC1=CCCCC1)C1CCC(CNc2c(N3CCCC3)c(=O)c2=O)CC1 (configuration not stated),inactive,
CC(=O)OCC(=O)Nc1ccc([N+](=O)[O-])cc1Cl,inactive,

SMILES,Potency,"activity, negative = less viability"
CSc1nc2ccccc2cc1/C=C(\C#N)c1cccc(C)c1,"inconclusive [cytotoxic, full curve]",
COc1ccc(NC(=O)C2Cc3c(-c4cccc(NC(C)=O)c4)ccnc3O2)cn1 (configuration not stated),"inconclusive [cytotoxic, full curve]",
CCN(CC)C1CCCCC1NS(=O)(=O)c1ccc(Cl)cc1 (configuration not stated),inactive,
COc1ccc(S(=O)(=O)N(CC(=O)NCc2ccco2)c2ccccc2OC)cc1,inactive,
O=C1C=CC(=O)N1Cc1ccccc1,active: 2.59 µM,
CCc1ccc(S(=O)(=O)/N=C2\C=C(Nc3cccc(C(=O)O)c3)C(=O)c3ccccc32)cc1,active: 8.2 µM,
COc1cc(OC)c2c(-c3cccc(-c4ccc(OC)c(F)c4)c3)cc(=O)oc2c1,"inconclusive [cytotoxic, full curve]",
CCCCCSc1nc2c(cnn2-c2ccccc2)c(=O)[nH]1,"inconclusive [cytotoxic, single point]",
Cc1cc(C)c2nc(-c3cccnc3)cc(C(=O)Nc3ccc(S(=O)(=O)Nc4onc(C)c4C)cc3)c2c1,"inconclusive [cytotoxic, partial curve]",
COc1ccc(OC)c(COC(=O)c2cc([N+](=O)[O-])ccc2N2CCOCC2)c1,"inconclusive [cytotoxic, single point]",
CC(Sc1nccn1C)C(=O)Nc1ccc(C(N)=O)cc1 (configuration not stated),inactive,
CC(C)(C)NC(=O)C(c1ccnc2ccccc12)n1c(=O)c(-c2ccco2)nc2ccccc21 (configuration not stated),inactive,
Cc1cc2c(ncn2C)c(NS(=O)(=O)c2ccc(Cl)cc2)c1C,inactive,
CSCC[C@H](NC(=O)OC(C)(C)C)c1nnc(SCc2ccccc2)o1,inactive,
CC(=O)Oc1ccc(C23c4ccccc4C2(OC(C)=O)c2cc(OC(C)=O)ccc23)cc1 (configuration not stated),active: 7.31 µM,
O=C1NC2c3c(I)sc(I)c3C(=O)C2O1 (configuration not stated),"inconclusive [cytotoxic, single point]",
C[C@H](c1ccccc1)N1C[C@H](COCc2ccccc2)Oc2cc(N3CC[C@H](N(C)C)C3)ccc2S1(=O)=O,active: 23.1 µM,
CC(=O)Nc1ccc(CN(C)c2c(C)nc3ccc(C(=O)Nc4ccc(Cl)c(Cl)c4)cn23)cc1,"inconclusive [cytotoxic, single point]",
N#CC1=C(N)OC2=C(C(=O)CC(c3ccco3)C2)C1c1ccc(OCc2c(F)cccc2Cl)cc1 (configuration not stated),"inconclusive [cytotoxic, single point]",
N#C/C(=C\C=C\c1ccccc1)C(=O)NCc1cccnc1,"inconclusive [cytotoxic, single point]",
CCOC(=O)C1CCN(Cc2ccccc2C(F)(F)F)CC1,inactive,
OCCN1CCN(C2CCC(c3ccc(F)cc3)c3ccc(F)cc32)CC1 (configuration not stated),active: 18.4 µM,
Cc1ccc(NC(=S)NC(=O)c2ccc(F)cc2)cc1S(=O)(=O)Nc1ccccc1Cl,"inconclusive [cytotoxic, single point]",
CC(C)(C)NC(=O)C(c1ccncc1)N(Cc1ccc(F)cc1)C(=O)c1ccc(-c2ccccc2)[nH]1 (configuration not stated),"inconclusive [cytotoxic, single point]",

SMILES,Potency,"activity, negative = less viability"
CCOC(=O)[C@]12CCCC=C1N(Cc1ccc(Cl)cc1Cl)C(=O)[C@H](CC(=O)NCc1cccs1)C2,"inconclusive [cytotoxic, single point]",
COc1ccc(NC(=O)O[C@@H](C)[C@@H]2CN3CCc4c([nH]c5ccc(-c6ccc(OC)cc6)cc45)[C@@H]3C[C@@H]2N(C)C(=O)Nc2ccc(OC)cc2)cc1,inactive,
Cn1nc(C(F)(F)F)c(-c2ccc(Br)cc2)c1NC(=O)Nc1ccc(F)cc1F,"inconclusive [cytotoxic, partial curve]",
Cc1ccc(C(=O)/C=C/c2cn(CN3CCN(C)CC3)c3ccccc23)cc1,"inconclusive [cytotoxic, single point]",
CCN(C[C@H]1N[C@@](Cc2ccccc2)(C(=O)OC)[C@H]2C(=O)N(C)C(=O)[C@@H]12)C(=O)COc1ccccc1,inactive,
O=C(NCCN1CCCC1)c1ccc2c(c1)N(Cc1ccc(F)cc1)C(=O)c1ccccc1S2=O (configuration not stated),inactive,
COc1ccccc1-c1n[nH]c2c1[C@H](C)CC[C@H]2C(C)C,"inconclusive [cytotoxic, single point]",
CCc1cc(=O)[nH]c(SCCc2ccccc2)n1,inactive,
COCCCNCCC(CCC(C)C)c1ccc2c(c1)OCO2 (configuration not stated),active: 20.6 µM,
CC(Nc1cccc2ccccc12)C(=O)N/N=C/c1ccc([N+](=O)[O-])cc1 (configuration not stated),"inconclusive [cytotoxic, single point]",
Cc1cccc(NC(=S)N/N=C/c2ccc(Cl)c([N+](=O)[O-])c2)c1,"inconclusive [cytotoxic, single point]",
Cc1ccc(Cn2nnc3c(=O)[nH]c(C4CCN(S(=O)(=O)c5cc(C)ccc5C)CC4)nc32)cc1,"inconclusive [cytotoxic, single point]",
COc1ccc(-c2cn3cc(C(=O)NN)ccc3n2)cc1,"inconclusive [cytotoxic, single point]",
CCCc1ccc(C(=O)NC(=O)c2ccccc2O)cc1,"inconclusive [cytotoxic, partial curve]",
O=C(NC1CC1)c1ccc2sc([C@H]3C[C@H](O)[C@@H](CO)O3)nc2c1,"inconclusive [rising, single point]",
CCC1CCCCN1CCCNC(=O)CN1C(=O)CSc2ccc(S(=O)(=O)N3CCOCC3)cc21 (configuration not stated),"inconclusive [rising, single point]",
COC1Cc2ccccc2N(C(N)=O)c2ccccc21 (configuration not stated),inactive,
Cc1cc([N+](=O)[O-])nn1CC(=O)NCc1ccco1,inactive,
O=c1cc(-c2ccccc2)nc2c(Cl)cc(Cl)cn12,inactive,
NC(=O)c1c(NC(=O)c2c(F)cccc2F)sc2c1CCN(Cc1ccccc1)C2,inactive,
CCOC(=O)c1ccc(NC(=O)COc2ccccc2CNCCc2ccccc2)cc1,"inconclusive [cytotoxic, single point]",
O=C(CSCc1ccccc1Cl)NCCSc1ccccn1,inactive,
Cc1ccc(Cl)cc1NC(=O)CN1C(=O)NC(C)(C2CC2)C1=O (configuration not stated),inactive,
CN(Cc1cn(C)nc1-c1ccccc1F)CC1CCN(Cc2ccccc2)CC1,,inconclusive: -30.4% [cytotoxic]
